53 compounds from ChEMBL document CHEMBL4888484, “Replenishing the malaria drug discovery pipeline: Screening and hit evaluation of the MMV Hit Generation Library 1 (HGL1) against asexual blood stage Plasmodium falciparum ,using a nano luciferase reporter read-out” (2022) can be followed below.

Values joined by “and” are separate entries in the source; they are usually repeats but may differ in a detail not shown here. Equal entries are not always repeated. Among all 150,000 compounds or so, about 540 (0.36%) showed an effect of 50% or more. The list shows a part of the results.

For this experiment, the system named is Plasmodium falciparum. Nature of the experiment: Primary screen in NF54 nanoGlo assay, in single point, at 2uM, 72h; a lower Z score goes with more inhibition. The conditions noted are these: timepoint 72 hour. Type of experiment: functional, Erythrocyte.

Regarding `COc1ccc(-c2nnc(NC(=O)CS(=O)(=O)c3ccccc3)o2)cc1OC`, the “% Inhibition” value is given as -1% and the Z score was 0.1.
Taken in the same sequence, the figures for `Cc1oc2ccn(C)c(=O)c2c1C(=O)NCc1ccc(F)cc1` were -7% and 1.06.
As to `C#CCNC(=O)c1cc(CC)c(C)s1`, the “% Inhibition” value is on record as 3% and the Z score was -0.39.
Take `CCc1nc(COc2ccc(C(=O)N[C@H]3CCN(C)C(=O)C3)cc2)no1`: the “% Inhibition” value was -6% and the Z score was 0.57.
Taken in the same sequence, the figures for `Cc1noc(C)c1CN1CC2(CCN(C(=O)c3ccc(C#N)nc3)CC2)CC1=O` were -3% and 0.42.
Taken in the same sequence, the figures for `Cc1cc(C)cc(-n2nc(-c3ccco3)nc2[C@H]2CCCN(C(N)=O)C2)c1` were -2% and 0.27.
For `Cc1cccc(CC(=O)N2CC[C@H](Cc3noc(C4CC4)n3)C2)c1`, the “% Inhibition” value is -10% and the Z score is 1.24.
The corresponding values for `O=C(NCCc1ccccn1)C1CCOCC1` are -28% and 3.24.
The corresponding values for `Cc1ccc(CNCc2ccc(N3CCCC3=O)cc2)c(C)c1` are 29% and -3.94.
The corresponding values for `CN1CCC2(CC1)Nc1cc(F)c(F)cc1-c1nc(=O)c(-c3ccc(F)cc3)nn12` are 5% and -1.
Consider `Cc1nc(NC(=O)[C@H](C)c2cccs2)cc(C2CC2)n1`, for which the “% Inhibition” value was -12% and the Z score was determined as 2.27.
Taken in the same sequence, the figures for `CCCCS(=O)(=O)N[C@H]1C[C@H](c2cc(=O)[nH]c(COC)n2)C1` were -14% and 1.85.
The corresponding values for `C=CCn1ccc(=O)c2c(C(F)(F)F)nccc21` are -31% and 3.58.
For `CCN(CC(=O)NC(=O)Nc1ccc(C)c(C)c1)[C@@H](C)c1cccc(O)c1`, the “% Inhibition” value was -2% and the Z score was determined as 0.45.
For `CC(=O)N[C@H]1CCN(S(=O)(=O)c2sc(C)cc2C)C1`, the “% Inhibition” value is given as -1% and the Z score worked out at 0.15.
For `C=CCN1CC2(CCC1=O)CCN(C(=O)[C@H](C)n1cnnn1)CC2`, the “% Inhibition” value is listed as -10% and the Z score is 1.7.
Taken in the same sequence, the figures for `Cc1cc(NC(=O)C(C)C)c(C)cc1O` were -10% and 1.07.
Taken in the same sequence, the figures for `Cc1ncsc1CN1CCCN(S(=O)(=O)N2CCCCC2)CC1` were -8% and 0.93.
Turning to `O=C(Cc1ccc(Cl)cc1)N1CCCC[C@@H]1CCN1CCCCC1`, where the note is “2 µM”, the “% Inhibition” value was -7% and -9%; the Z score was 1.01 and 1.25.
Turning to `CN(CC1COCCO1)C(=O)C1CC(Cc2ccc(F)cc2)=NO1` (stereo unspecified), the “% Inhibition” value is -18% and the Z score was determined as 2.3.
Take `CC(C)=CCN1CC2(CCN(C(=O)c3onc4c3CCCC4)CC2)CC1=O`: the “% Inhibition” value is -6% and the Z score was determined as 0.61.
Taken in the same sequence, the figures for `CC1CN(CCN2CCCC(n3ccc(C(F)(F)F)n3)C2)CCO1` (stereo unspecified) were -14% and 1.71.
Taken in the same sequence, the figures for `COc1ccc([C@H](C(=O)Nc2ccc(N3CCOCC3)cc2)N(Cc2ccc(C)cc2)C(=O)Cn2nnc3ccccc32)cc1OC` were -2% and 0.19.
As for `CCS(=O)(=O)N1CCN(C(=O)[C@H]2C[C@@H]2c2cnn(C)c2)CC1`, the “% Inhibition” value was -3% and the Z score came out at 0.57.
Taken in the same sequence, the figures for `CC(C)Cc1nc(CO[C@H]2CCCN(C(=O)CC3CCN(C)CC3)C2)no1` were 3% and -0.42.
In the case of `COc1ccc(C[C@@H](Cc2ccc3c(c2)OCO3)NC(=O)c2ccccc2C)cc1`, the “% Inhibition” value is given as -2% and the Z score turned out to be 0.31.
In the case of `c1ccc(C2CN([C@H]3CCOC4(CCOCC4)C3)C2)nc1`, the “% Inhibition” value worked out at 9% and the Z score is -1.2.
The corresponding values for `CCc1ccc(-c2ccc(C(=O)N(CC)CCCN(C)C)o2)cc1` are -5% and 0.95.
Taken in the same sequence, the figures for `COCCCN1C[C@]2(CCCN(c3ncccn3)C2)CCC1=O` were 2% and -0.33.
As for `O=C(Nc1ccc(N2CCN(C3CCCC3)C2=O)nc1)c1ccc2c(c1)OCO2`, the “% Inhibition” value is recorded as -12% and the Z score is 1.27.
Taken in the same sequence, the figures for `O=C(NCCn1cc(-c2cccnc2)cn1)c1cncc(Br)c1` were 5% and -0.64.
For `COC(=O)N1CCC(N[C@H]2CCCc3ccc(F)cc32)CC1`, the “% Inhibition” value is listed as -4% and the Z score is given as 0.51.
In the case of `CN(C)c1cnn(Cc2nc3ncccn3n2)c(=O)c1`, the “% Inhibition” value was -3% and the Z score turned out to be 0.5.
As to `COc1ccc2nc(NC(=O)C3CC=C(C)CC3C(=O)O)sc2c1` (stereo unspecified), the “% Inhibition” value was -29% and the Z score is reported as 3.41.
On to `Cc1nc(Cc2noc(-c3cc(C4CC4)nc4ccccc34)n2)no1`, for which the “% Inhibition” value is listed as -1% and the Z score was determined as 0.15.
With `CC(=O)NCc1ccc(-c2nc3ccccc3c(-c3ccccc3)c2Cl)o1`, the “% Inhibition” value is -14% and the Z score amounted to 2.14.
Taken in the same sequence, the figures for `CCN(Cc1cc2c(cc1OC)OCCCO2)[C@H]1CCCC[C@@H]1O` were -11% and 1.86.
The corresponding values for `CN1CCC(NC(=O)C2CCN(C(=O)c3ncn4c3CO[C@H](c3ccc(F)cc3)C4)CC2)CC1` are -12% and 1.08.
Turning to `C[C@H](NC1CCN(Cc2ccccc2)CC1)C(=O)NCc1ccco1`, the “% Inhibition” value was -4% and the Z score is given as 0.54.
For the compound `CC(C)C1CCCC(NC(=O)N(C)Cc2ncnn2CC(F)F)CC1` (stereo unspecified), the “% Inhibition” value is listed as -9% and the Z score was 1.66.
The corresponding values for `CN(CCCNC(=O)c1cccc(-c2ccccc2C#N)c1)C1CCCC1` are -16% and 1.4.
Taken in the same sequence, the figures for `Cc1cc(C)c(-c2nc(-c3ccncc3)no2)c(=O)[nH]1` were -13% and 2.55.
The corresponding values for `CCc1nnc(-c2nc3c([nH]2)CCCNC3=O)o1` are -16% and 1.66.
Consider `Cc1ccc(NC(=O)c2ncn3c2C(=O)N(C2CC2)[C@](C)(C(=O)NCc2ccc(F)cc2)C3)cc1`, for which the “% Inhibition” value is on record as -17% and the Z score is given as 1.72.
Taken in the same sequence, the figures for `CCCc1ncncc1C(=O)N[C@H]1CS(=O)(=O)C[C@@H]1OC` were -11% and 1.66.
Take `CC(C)CNC(=O)[C@H](C)N(C)Cc1noc(C2CCC2)n1`: the “% Inhibition” value is listed as -7% and the Z score was 1.13.
For the compound `Cc1ncccc1NC(=O)[C@H](N)C(C)C`, the “% Inhibition” value is listed as -9% and the Z score was 1.08.
The corresponding values for `CCOC(=O)c1[nH]c(C)c(C(=O)N2CCN(S(=O)(=O)c3ccccc3Cl)CC2)c1C` are -15% and 1.69.
Regarding `CCCCCOC(=O)NC[C@H](O)c1ccccc1`, the “% Inhibition” value is recorded as -6% and the Z score was 1.21.
The corresponding values for `COc1c(F)cc(F)cc1NCc1ccc(-c2ccn[nH]2)o1` are -8% and 0.81.
The corresponding values for `COc1ccccc1NC(=O)Cn1nc2c3sc(N(C)C)nc3ncn2c1=O` are -14% and 1.4.
As to `CC[C@H]1CC[C@H](NC(=O)c2cnc3ccccn23)CC1`, the “% Inhibition” value is -2% and the Z score came to 0.32.
`COc1ccc(CNC(=O)c2nonc2C)cc1OC`: the “% Inhibition” value is given as -12% and the Z score is 1.42.

As a reminder, the % Inhibition is the change of the read-out against control, counted positive when it falls.
